Scores whose standard error is large were omitted. Two further conditions of the source, in which the scores hardly spread, are not listed. In variant names, del marks residues removed and ins residues inserted between the two positions. For some assays here: The concentration of ogerin is not given here.
B1: GPR68, Q15743 (parent)
chain: MGNITADNSSMSCTIDHTIHQTLAPVVYVTVLVVGFPANCLSLYFGYLQIKARNELGVYLCNLTVADLFYICSLPFWLQYVLQHDNWSHGDLSCQVCGILLYENIYISVGFLCCISVDRYLAVAHPFRFHQFRTLKAAVGVSVVIWAKELLTSIYFLMHEEVIEDENQHRVCFEHYPIQAWQRAINYYRFLVGFLFPICLLLASYQGILRAVRRSHGTQKSRKDQIQRLVLSTVVIFLACFLPYHVLLLVRSVWEASCDFAKGVFNAYHFSLLLTSFNCVADPVLYCFVSETTHRDLARLRGACLAFLTCSRTGRAREAYPLGAPEASGKSGAQGEEPELLTKLHPAFQTPNSPGSGGFPTGRLA

Legend:
[1] = variants of: B1; test: cAMP reporter score (Enrich2 score, wild type = 0); higher = more signal; HEK293T, FACS bins
[2] = variants of: B1; test: surface expression score (Enrich2 score, wild type = 0); higher = more signal; HEK293T, FACS bins

Variant | cAMP reporter score ([1]; pH 5.5) | cAMP reporter score ([1]; pH 6) | cAMP reporter score ([1]; pH 6, modulator: ogerin) | cAMP reporter score ([1]; pH 6.5, modulator: ogerin) | surface expression score [2]
P75Q | -0.242 | -1.1 | -1.96 | -1.32 | -1.59
P75R | -2.12 | -0.982 | -1.25 | -0.746 | -1.31
P75S | -2.13 | -0.341 | -1.76 | -1.09 | 
P75V | -0.178 | -0.01 | -0.724 | -0.43 | 0.143
P75W | -0.602 |  |  | -1.18 | -1.55
P75Y | -0.504 | -0.708 | -0.996 | 0.12 | -0.954
P75_F76del | -0.482 | 0.644 | -0.687 | -0.391 | 0.395
P75_F76insG | -1.21 | -1.25 | -2.28 | -1.42 | -1.44
P75_F76insGS | -1.07 |  | -1.57 | -1.48 | -3.39
P75del | -1.27 | -0.685 | -2.18 | -0.732 | -1.02
F76A | -1.24 | -0.745 | -1.1 | -0.965 | -1.84
F76C | -0.384 |  | -0.612 | -1.03 | -0.829
F76D | -0.679 |  | -0.649 |  | 
F76E | -1.51 | -2.26 | 0.534 | -3.23 | -2.81
F76G | -0.697 | -0.972 | -0.968 | -0.642 | -1.72
F76H | -1.8 |  |  | -0.526 | -2.08
F76I | -1.68 | -0.905 | -1.9 | -1.25 | -0.481
F76K | -1.06 | -1.65 | -0.077 | -1.14 | -1.25
F76L | 0.123 | 0.429 | -0.007 | -0.902 | -0.711
F76M | -0.156 |  | 0.797 | -0.518 | -0.932
F76N | -0.019 |  | -0.287 | -1.37 | -1.19
F76P | -0.732 | 1.75 | -0.659 |  | 

Variant | cAMP reporter score ([1]; pH 5.5) | cAMP reporter score ([1]; pH 6) | cAMP reporter score ([1]; pH 6, modulator: ogerin) | cAMP reporter score ([1]; pH 6.5, modulator: ogerin) | surface expression score [2]
F76Q | -1.49 | -0.801 | -2.28 | -1.49 | -1.78
F76R | -0.637 | 0.118 | -2.09 | -2.68 | -0.403
F76S | -1.05 | -0.862 | -1.26 | -0.669 | -2.39
F76T | -1.32 |  | -1.65 | -0.979 | -0.09
F76V | -1.37 |  | -0.722 | -0.942 | -0.247
F76Y | 0.511 | -0.125 | 0.334 | 0.431 | 0.262
F76del | -1.4 | -1.17 | -2.08 | -1.23 | -0.457
W77A | -1.88 | -1.04 | -1.89 | -1.28 | 0.179
W77C | -1.52 | -0.478 | -1.8 | -1.52 | 1.56
W77D | -1.11 | -1.32 | -1.24 | -1.44 | -1.48
W77E | -2.48 |  | -1.09 | -1.76 | 
W77F | -1.1 | -1.71 | -0.791 | -1.4 | -0.159
W77G | -0.45 | -0.959 | -0.464 | -0.743 | 0.921
W77H | -1.38 | -1.83 | -0.718 | -1.6 | 1.5
W77I | -2.27 | -1.91 | -1.45 | -1.25 | -1.05
W77K | -1.84 |  |  | -0.807 | -0.324
W77L | -2.13 | -0.737 | -1.25 | -1.46 | 1.19
W77M | -1.51 | -0.844 | -0.799 | -0.286 | 1.57
W77N | -1.81 | -1.46 | -1.47 | -0.897 | 0.647
W77P | -1.36 | -0.817 | -1.56 | -1.44 | -1.99
W77Q | -1.49 | -1.63 | -1.65 | -0.397 | 0.609
W77R | -1.66 |  | -1.36 | -0.942 | 0.805

Variant | cAMP reporter score ([1]; pH 5.5) | cAMP reporter score ([1]; pH 6) | cAMP reporter score ([1]; pH 6, modulator: ogerin) | cAMP reporter score ([1]; pH 6.5, modulator: ogerin) | surface expression score [2]
W77S | -0.626 | -0.256 | -0.976 | -0.46 | -1.02
W77T | -1.56 | -0.49 | -2.09 | -0.763 | 1.49
W77V | -1.61 | -1.43 |  | -1.78 | 0.202
W77Y | -1.19 | -0.811 | -1.25 | -1.08 | 2.39
L78A | 0.606 |  | -0.9 | -0.161 | -0.183
L78C | -0.811 |  | -1.92 | -0.999 | 1.15
L78D | -1.79 | -1.29 |  | -0.491 | -3.58
L78E | -1.43 | -1.79 | -1.09 | -0.777 | -2.94
L78F | -0.702 | -0.182 | -0.282 |  | -0.546
L78G | -1.08 | -2.15 | -0.588 | -1.1 | -1.78
L78H | -0.985 | -0.621 | -1.54 | -1.39 | 
L78I | 0.402 |  | -0.692 | -0.748 | 1.29
L78K | -1.25 | -1.46 | -1.11 | -1.09 | -1.44
L78M | -0.476 | -0.518 | -0.661 | -1.07 | -0.599
L78N | -0.411 | -0.522 | -0.683 |  | 
L78P | -0.698 | -1.59 | -1.66 | -0.469 | -0.806
L78Q | -1.43 | -0.952 | -1.7 | -1.74 | -1.65
L78R | -1.68 | -1.55 | -1.48 | -0.782 | -1.2
L78S | -0.967 |  |  | -0.38 | 0.169
L78T | -0.876 |  |  | 0.34 | -1.23
L78V | 0.41 | -1.28 | -0.526 | -0.591 | -0.255
L78W | -0.626 | -0.457 | -0.638 | -1.37 | -0.528
